# Source: the supplement of paper PMC12217912
# The list shows a part of the results. Sequences were assembled here from the parent chain. Inactive controls read about 0.05.
# B1: TEV protease; numbered along this chain (parent)
# chain: MGESLFKGPRDYNPISSSICHLTNESDGHTTSLYGIGFGPFIITNKHLFRRNNGTLVVQSLHGVFKVKDTTTLQQHLVDGRDMIIIRMPKDFPPFPQKLKFREPQREERICLVTTNFQTKSMSSMVSDTSCTFPSGDGIFWKHWIQTKDGQCGSPLVSTRDGFIVGIHSASNFTNTNNYFTSVPKNFMELLTNQEAQQWVSGWRLNADSVLWGGHKVFMVKPEEPFQPVKEATQL
# Variants of: B1
# Test: raw area under fraction-flipped curve 0-4 h after induction (AUC4h, not background-subtracted), DNA-recorder readout of cleavage of the substrate (dimensionless); higher = more cleavage of the substrate by the protease variant
# Details: temperature: 34 °C; time window: 0-4 h after rhamnose induction
# Experimental: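 In vivo DNA recorder in E. coli TOP10(DE3) ΔrhaA at 34 °C. Each TEVp single-site mutant (parent TEVp 0) is paired with a single-site variant of the 7-mer TEVs (canonical ENLYFQ|S). The substrate sits between flexible linkers in a Bxb1-sfGFP-TEVs-SsrA fusion, so cleavage stabilises Bxb1 and speeds flipping of a recombination array, read by NGS. The value is the raw area under the fraction-flipped curve over 0-4 h after rhamnose induction (AUC4h), with ≥20 reads per time point. It is not background-subtracted; inactive controls average about 0.047.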
# 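Further: Bxb1 expression induced with 0.2% (w/v) L-rhamnose at OD600 near 0.5, cultures sampled hourly, flipped fraction per protease–substrate barcode pair counted by paired-end Illumina sequencing.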
Variant,area with substrate DNLYFQS,area with substrate MNLYFQS,area with substrate PNLYFQS,area with substrate VNLYFQS,area with substrate WNLYFQS,area with substrate YNLYFQS,area with substrate FNLYFQS,area with substrate GNLYFQS,area with substrate HNLYFQS,area with substrate INLYFQS,area with substrate LNLYFQS,area with substrate NNLYFQS,area with substrate TNLYFQS,area with substrate KNLYFQS,area with substrate RNLYFQS,area with substrate SNLYFQS,area with substrate QNLYFQS
R51D,0.0675,0.0714,0.0607,0.0595,0.0687,0.0558,,,,,,,,,,,
R51E,0.0822,0.0742,,,0.0613,,0.0581,0.0837,0.0635,0.0693,0.0575,0.0561,0.0664,,,,
R51Q,0.0932,0.062,0.0682,,0.0629,0.0651,0.0514,0.121,0.0673,0.11,,0.0702,0.075,0.069,,,
R51T,0.0941,0.0871,0.0922,,0.0496,,,,0.0663,,0.054,0.0821,0.0651,,0.0566,,
R51V,0.0696,,0.0645,0.0695,0.0513,0.0588,0.0741,0.0717,0.0639,0.0564,0.068,,0.0639,,,0.0686,
N53K,0.082,,0.0566,,0.0569,0.0656,,0.0651,0.07,0.0712,0.0681,0.0682,0.0702,0.0566,,0.0497,
N53P,0.0715,,0.0726,0.07,0.0665,,,,0.0641,,,0.0571,0.052,0.071,,0.0522,0.0742
G54P,0.0535,,0.0484,,0.045,,0.071,0.0645,0.0583,0.0577,,0.0517,,0.106,,,
T55P,0.0629,0.0514,0.0746,,0.0555,,0.0798,0.052,0.0657,0.0596,0.08,0.0666,0.0645,,,,0.0529
T55R,0.0947,,0.0792,0.0582,0.06,,,,0.0567,0.0667,,,0.061,0.0665,,0.0762,
T55W,0.082,,0.055,0.0888,0.0564,0.0436,,,0.0845,0.0676,0.052,0.0721,0.0634,0.0832,,,0.072
V57F,0.0657,,0.0631,0.08,0.0607,,,0.0544,0.065,0.0474,,0.0783,0.064,,0.0516,0.0645,
V57H,0.0602,,0.069,,0.0821,,0.0627,,,0.0705,0.0597,0.062,0.0683,0.0869,,,
V57P,0.0595,0.038,,,0.0439,0.0394,0.0503,,,0.0453,0.0464,,0.0512,0.0505,,,
V58A,0.0846,,,,,0.0576,,,,,0.0728,0.0477,,0.0727,0.0703,0.0578,
V58I,0.0726,,0.0684,,0.074,,0.0802,0.0615,0.0656,,,0.126,,0.0805,,,
Q59E,0.0542,,0.07,0.0578,0.0691,0.0637,,,0.0796,0.0476,,0.0772,0.0635,0.0681,,0.0535,
Q59S,0.0689,,0.0207,,0.0642,,,0.0708,,,0.0748,,0.0499,,,,
L61I,0.081,,,,0.058,0.0584,,0.0591,0.0708,0.077,0.0737,,0.044,0.0614,,,

Variant,area with substrate DNLYFQS,area with substrate MNLYFQS,area with substrate PNLYFQS,area with substrate VNLYFQS,area with substrate WNLYFQS,area with substrate YNLYFQS,area with substrate FNLYFQS,area with substrate GNLYFQS,area with substrate HNLYFQS,area with substrate INLYFQS,area with substrate LNLYFQS,area with substrate NNLYFQS,area with substrate TNLYFQS,area with substrate KNLYFQS,area with substrate RNLYFQS,area with substrate SNLYFQS,area with substrate QNLYFQS
L61Y,0.0689,0.107,0.0727,,0.0574,0.0716,,,0.0554,0.0548,0.0633,,0.0611,,,0.0681,
H62E,0.101,0.0549,0.066,0.0607,0.0546,0.061,,0.0468,0.0705,0.0609,0.0892,,0.0588,,,0.0489,
G63E,0.0636,,0.0614,,0.0921,0.055,0.0689,0.0549,0.0544,0.0598,0.0507,,,,,0.0613,
G63P,0.0649,,0.0501,,0.0471,0.0537,,0.0573,0.0598,,0.0457,,0.045,0.0537,0.054,,0.0452
K68S,0.0872,0.0605,,0.0616,0.0598,0.0506,0.0566,0.0578,0.0607,0.0677,,0.0774,,,,,
D69A,0.0629,,,,0.0553,,,,,,,,0.0566,,,,
T71S,0.0678,0.0608,0.0653,,,0.0622,,0.0687,,0.066,,0.0666,0.0671,,,,
T72I,0.0791,,0.0683,0.0462,,,0.0681,,,,0.0634,,0.0396,0.0665,,,
T72L,0.0702,0.0541,0.0765,,0.0569,0.0666,,,0.065,,,,,,,0.0619,
T72M,0.0762,,,,,,0.0574,,0.0645,,,0.0461,0.0694,0.0402,,,0.0582
T72W,0.0603,,0.0434,,0.0522,0.059,0.0591,,,,,,0.0699,0.0567,0.0522,0.0656,
L73M,0.085,0.0599,,,0.0627,0.0675,,,0.0445,,,,0.0532,0.047,0.0546,0.0559,0.0501
Q74L,0.0497,,0.0577,,0.065,,,,0.0651,,,,,,,0.0554,
Q74N,0.0877,,0.0488,,0.0522,,,0.0893,,0.0379,,,0.119,0.0517,,0.0727,
Q74T,0.0753,,,0.0684,0.0655,,0.0628,0.059,0.0566,,0.0532,0.051,0.0454,0.0412,0.0352,,
Q75L,0.11,,,,0.0504,,,,0.0726,,,0.103,,,,,
H76Y,0.0454,,0.0722,0.0724,0.0575,0.0656,,,0.0401,,0.0626,,0.0646,0.0704,0.0646,0.0537,
V78H,0.0677,0.0594,0.0452,,0.0713,,,,0.0667,0.0809,0.0535,,0.0523,0.062,,,
